Experimental data as given in PubChem BioAssay AID588342 (National Center for Advancing Translational Sciences (NCATS), 2011).
Out of some 360,000 compounds screened, about 25,000 (6.9%) were called active. Inconclusive means that the source gave no clear call. Such entries were picked first, then a sample of the others. The call rests on the fitted dose curve; in most records, active means well fitted inhibition curve with a large enough effect; inconclusive means small, poorly fitted or top-dose-only effect; inactive means flat fitted curve, though single readings scatter. Potencies of inconclusive entries are doubtful fits and often do not repeat.

Target: Luciferin 4-monooxygenase (Photinus pyralis) (UniProt P08659)
Test: qHTS profiling assay for firefly luciferase inhibitor/activator using purifed enzyme and Km concentrations of substrates (counterscreen for miR-21 project); further: nearly all actives have a fitted effect of over 55% in size
Conditions: purified FLuc, luminescence inhibition; series mostly up to 57.5 µM
In short: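 Purified P. pyralis luciferase (10nM final) with 10uM D-luciferin and 10uM ATP (Km levels) in 50mM Tris acetate pH 7.5, 10mM Mg acetate, 0.01% Tween-20, 0.05% BSA; qHTS 6-point titration, ~60 µM downward; luminescence read.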
Potency means the concentration at half of the fitted maximal effect; tags describe the fitted curve by direction and shape.

Chain of UniProt P08659 (P08659 whole entry, looked up): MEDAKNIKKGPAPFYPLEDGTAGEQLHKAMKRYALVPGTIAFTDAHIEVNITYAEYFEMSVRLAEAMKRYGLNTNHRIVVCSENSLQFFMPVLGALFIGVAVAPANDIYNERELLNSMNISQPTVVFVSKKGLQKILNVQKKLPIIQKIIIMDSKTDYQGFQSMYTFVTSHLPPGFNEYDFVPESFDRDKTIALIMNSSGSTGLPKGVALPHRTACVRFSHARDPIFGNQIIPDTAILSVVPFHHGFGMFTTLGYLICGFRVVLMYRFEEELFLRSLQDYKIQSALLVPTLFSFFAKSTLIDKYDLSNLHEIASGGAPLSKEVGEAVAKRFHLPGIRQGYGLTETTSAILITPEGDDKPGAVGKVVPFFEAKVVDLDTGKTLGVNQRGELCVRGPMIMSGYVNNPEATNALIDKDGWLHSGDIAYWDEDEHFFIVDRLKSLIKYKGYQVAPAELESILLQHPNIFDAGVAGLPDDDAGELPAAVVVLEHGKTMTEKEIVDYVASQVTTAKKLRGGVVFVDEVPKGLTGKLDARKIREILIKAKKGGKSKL

| Structure (SMILES) | Potency |
| --- | --- |
| O=C(NNc1nc2c(F)cccc2s1)c1ccc(F)cc1 | inactive |
| COC(=O)C1=NN(C(=O)c2cccc(Cl)c2)C(O)(C(C)(C)C)C1 (configuration not stated) | inconclusive: 37.9 µM [inhibitor, partial curve, poor fit] |
| COc1cccc(-c2csc(N3CCN(C(=S)Nc4ccccc4OC)CC3)n2)c1 | inconclusive: 13.5 µM [inhibitor, partial curve, poor fit] |
| COCCNC(=O)c1cc2oc3ccccc3c2n1C | active: 9.53 µM |
| Cc1ccccc1OCC(=O)Nc1cccc(C(=O)OCc2cc(=O)n3c(C)csc3n2)c1 | inconclusive: 8.49 µM [inhibitor, partial curve] |
| Cc1ccc(C)c(S(=O)(=O)NC2CCSC2=O)c1 (configuration not stated) | inactive |
| Cc1nnc(N=c2ssnc2Cl)o1 | inconclusive: 30.1 µM [inhibitor, single point] |
| CC1=NN(C(N)=S)C(=O)C1N=Nc1ccc(Br)cc1 (configuration not stated) | active: 6.01 µM |
| CCc1nc2cccnc2n1-c1ccc(CC(=O)Nc2cccc(C)c2C)cc1 | inactive |
| c1ccc(CN2CCN(c3ncnc4c3cnn4-c3ccccc3)CC2)cc1 | inconclusive: 37.9 µM [inhibitor, single point] |
| CCS(=O)(=O)N1Cc2ccccc2CC1C(=O)Nc1nccs1 (configuration not stated) | inconclusive: 26.9 µM [inhibitor, single point] |
| Cc1ccc(NC(=O)c2cc(S(=O)(=O)N3CCc4ccccc43)cn2C)c(Cl)c1 | inactive |
| O=S(=O)(Nc1ccc2c(c1)oc1ccccc12)N1CCCC1 | inconclusive: 23.9 µM [inhibitor, single point] |
| CN(C)/C=N/NC(=O)c1ccc(Cl)cc1 | inactive |
| COc1ccccc1CCC(=O)Nc1cc(S(=O)(=O)N2CCCCC2)ccc1N1CCN(C)CC1 | inactive |
| CCC(=O)N1CCc2cc(S(=O)(=O)NC(CC(C)C)C(=O)NCCc3ccccc3)ccc21 (configuration not stated) | inactive |
| C=CCN(CC=C)C(=O)CN1C(=O)NC(Cc2c[nH]c3ccccc23)C1=O (configuration not stated) | inactive |
| COc1ccc(CCNC(=O)c2ccc3c(c2)N(Cc2ccc(F)cc2)C(=O)CS3)cc1OC | inactive |
| O=C(CNC(=O)c1ccc(Br)o1)NNC(=O)c1ccccc1O | inactive |
| Cc1nn(C(=O)c2cccc(Cl)c2)c(C)c1S(=O)(=O)N1CCOCC1 | inconclusive: 42.6 µM [inhibitor, partial curve, poor fit] |
| Fc1cccc2sc(Nc3nc4cc5c(cc4s3)OCCO5)nc12 | active: 1.2 µM |
| Cc1ccc(Cn2ccc(NC(=O)c3cc(C4CC4)on3)n2)cc1 | inconclusive: 26.9 µM [inhibitor, partial curve] |
| CN(C)c1ccc(/C=N/NC(=O)C(=O)/C=C2\NC3(CCCC3)Cc3ccccc32)cc1 | inactive |
| COc1cc(NC(=O)Nc2ccc(C)cc2)cc([N+](=O)[O-])c1 | inconclusive: 12 µM [inhibitor, partial curve, poor fit] |

| Structure (SMILES) | Potency |
| --- | --- |
| Fc1ccc2nc(Nc3nc4cc5c(cc4s3)OCO5)sc2c1 | active: 6.01 µM |
| COc1ccccc1CC(=O)Nc1cc(C)ccn1 | inconclusive: 23.9 µM [inhibitor, single point] |
| Cc1ccccc1N/N=C1\CCCNC1=O | inconclusive: 19 µM [inhibitor, partial curve] |
| COc1ccc2c(c1)C(c1ccccc1)NC(=O)C2 (configuration not stated) | inactive |
| CCC1=NN(C(=O)c2cccc([N+](=O)[O-])c2)C(O)(c2ccc(C)cc2)C1 (configuration not stated) | inconclusive: 30.1 µM [inhibitor, partial curve, poor fit] |
| O=C(NC(Cc1c[nH]c2ccccc12)C(=O)O)/C(=C/c1ccco1)NC(=O)c1ccccc1 (configuration not stated) | inconclusive: 37.9 µM [inhibitor, partial curve, poor fit] |
| Cn1nnc(NC(=S)NC(=O)c2cc3ccccc3o2)n1 | inconclusive: 19 µM [inhibitor, partial curve] |
| O=C(Nc1ccccc1)N(C1=NCCCCS1)c1ccccc1 | inconclusive: 37.9 µM [inhibitor, single point] |
| CC(NC(=O)c1sc2ccccc2c1Cl)C1CCCO1 (configuration not stated) | active: 9.53 µM |
| CCOC(=O)C1CCN(C(=S)Nc2ccc(C)cc2)CC1 | inconclusive: 30.1 µM [inhibitor, single point] |
| Cc1nn(-c2ccccc2)c(C)c1C(=O)Oc1ccccc1 | active: 16.9 µM |
| Cc1cccc(NC(=O)NCC(c2ccco2)N2CCCCC2)c1 (configuration not stated) | inconclusive: 37.9 µM [inhibitor, partial curve, poor fit] |
| O=C(COC(=O)Cc1ccc(-c2ccccc2)cc1)NCc1ccccc1 | inconclusive: 15.1 µM [inhibitor, partial curve, poor fit] |
| Cc1ccc(Cn2c(=O)c3ccccc3n3c(-c4cccc(O)c4)nnc23)cc1 | inactive |
| CCCc1[nH]n(-c2nc3ccccc3s2)c(=O)c1C=NCCCN(CC)CC | inconclusive: 37.9 µM [inhibitor, partial curve, poor fit] |
| COc1ccc(/C=N\NC(=O)c2cc(O)c(O)c(O)c2)cc1COc1ccc(C(=O)OCC(C)C)cc1 | active: 23.9 µM |
| Cc1ccc(N=Cc2ccc[nH]2)c(O)c1 | inconclusive: 23.9 µM [inhibitor, partial curve] |
| CCN(CC)CCOC(=O)c1ccc(NC(=O)Cn2ncc3c2-c2cc(C)ccc2OC3)cc1 | inactive |
| COc1ccccc1N1CCN(C(=O)CSc2nnc(-c3ccoc3C)o2)CC1 | inactive |
| CCOc1ccc(NC(=O)c2c[nH]n3c(=O)cc(C4CCN(C(=O)OC(C)(C)C)CC4)nc23)cc1 | inconclusive: 37.9 µM [inhibitor, partial curve, poor fit] |
| CCN(CC)S(=O)(=O)c1cc(C(=O)Nc2ccccc2[N+](=O)[O-])ccc1Cl | active: 9.53 µM |
| O=c1c2cc(F)ccc2sn1-c1ccc(F)cc1 | inconclusive: 15.8 µM [inhibitor, partial curve, poor fit] |
| O=C(NC1CCCCCC1)c1cc2c(=O)n3ccccc3nc2s1 | inconclusive: 33.8 µM [inhibitor, partial curve, poor fit] |
